# Where “and” joins values, the source holds several entries; their conditions need not be identical. Equal entries are not always repeated. In all, about 380,000 compounds went through this assay and about 25 (0.007%) were called active. Inconclusive means that the source gave no clear call. Such entries were picked first, then a sample of the others. The call rests on the fitted dose curve; in most records, active means well fitted activation curve with a large enough effect; inconclusive means small, poorly fitted or top-dose-only effect; inactive means no such curve, though single readings can be large or run the other way. No potency is given beside an inconclusive call; the fits are too rough.
# Molecular target: Glucagon-like peptide 1 receptor (Homo sapiens) (UniProt P43220)
# Test: qHTS of GLP-1 Receptor Agonists; on activation: % of control where 0% means no effect
# Conditions: HEK293 GLP-1R CRE-luciferase, luminescence, 4-6 h, cells express a hypersensitive GLP-1R form; activation: at 45.6 µM (top of the series) unless noted
# Potency means the concentration at half of the fitted maximal effect; tags describe the fitted curve by direction and shape.
# Chain of UniProt P43220 (P43220 whole entry, looked up): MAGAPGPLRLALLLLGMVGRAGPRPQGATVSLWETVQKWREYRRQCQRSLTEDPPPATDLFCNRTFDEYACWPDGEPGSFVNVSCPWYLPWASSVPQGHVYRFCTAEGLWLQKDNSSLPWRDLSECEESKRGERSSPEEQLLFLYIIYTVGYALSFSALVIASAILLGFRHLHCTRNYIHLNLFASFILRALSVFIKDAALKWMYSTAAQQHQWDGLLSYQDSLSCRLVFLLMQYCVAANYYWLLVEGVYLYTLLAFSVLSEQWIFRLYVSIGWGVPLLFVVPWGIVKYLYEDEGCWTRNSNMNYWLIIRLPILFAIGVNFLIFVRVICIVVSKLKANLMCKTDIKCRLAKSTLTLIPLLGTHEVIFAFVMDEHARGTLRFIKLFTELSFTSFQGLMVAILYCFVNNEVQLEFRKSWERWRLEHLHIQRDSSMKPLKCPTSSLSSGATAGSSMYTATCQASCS
Compound,Potency,activation
O=c1sc2ccccc2n1COc1ccccc1,"inconclusive [activator, partial curve, poor fit]",
CCOc1cc(N2CCOCC2)c(OCC)cc1NCC(=O)N1CCN(Cc2ccccc2)CC1,"inconclusive [activator, partial curve, poor fit]",
Cn1c(C(=O)NCc2ccc(F)cc2)cc2c(=O)n(C)c3ccccc3c21,,inactive: -0.524%
CC(C)(C)NC(=O)c1ccc(COc2ccc(Cl)cc2Cl)o1,"inconclusive [activator, partial curve, poor fit]",
C/C=C/CSc1nc2c(c(=O)[nH]c(=O)n2C)n1CCC,"inconclusive [activator, partial curve, poor fit]",
CCOc1ccc(C(=O)CCc2nc3ccccc3s2)cc1,"inconclusive [activator, single point]",
CC(C)Sc1ncc(S(=O)(=O)c2ccccc2)c(=O)[nH]1,,inconclusive: 43.3% [activator]
CC1CCC(NC(=O)Cn2c(=O)oc3ccccc32)CC1 (centres undefined),,inactive: 6.45%
CCN=c1scc(-c2ccc(F)cc2)n1/N=C/c1ccccn1,,inactive: 18.7%
Cc1ccc(-c2cc(-c3ccc(C)cc3O)[nH]n2)cc1,,inactive: -2.03%
COc1ccc(CCNC(=O)c2cnn3cccnc23)cc1OC,"inconclusive [activator, partial curve, poor fit]",
CC12CCC(C(=O)NCc3ccc(F)cc3)(OC1=O)C2(C)C (centres undefined),,inconclusive: 40.4% [activator]
COc1cc(SC)ccc1C(=O)NCc1ccc(C)cc1,"inconclusive [activator, partial curve, poor fit]",
COc1ccc(/C=N/NC(=O)CSc2n[nH]c(=O)[nH]c2=O)cc1,"inconclusive [activator, full curve, poor fit]",
CC1(C)Cc2nc3oc4c(NCc5ccccc5)ncnc4c3cc2CO1,"inconclusive [activator, partial curve, poor fit]",
COCCN1Cc2cc3cc(C)ccc3nc2SC1=Nc1cccc(OC)c1,,inactive: 12.5%
Cc1ccccc1-n1c(SCC(=O)NC2CC2)nc2ccccc2c1=O,,inactive: -1.37%
Nc1nc(CCl)nc(Nc2ccc3ccccc3c2)n1,"inconclusive [activator, single point]",
N/C(Cc1ccc(Cl)cc1Cl)=N\OC(=O)c1ccccc1F,"inconclusive [activator, partial curve, poor fit]",
COc1cc(/C=N/Nc2ccccc2[N+](=O)[O-])cc(OC)c1O,"inconclusive [activator, single point]",
C=CCc1c(C)nc2c(OC)cccc2c1Cl,"inconclusive [activator, partial curve, poor fit]",
CN(C)c1ccc(/C=N/NC(=O)CN(c2ccccc2Cl)S(C)(=O)=O)cc1Br,"inconclusive [activator, partial curve, poor fit]",
Clc1ccccc1Nc1nc(NCC2CC2)nc2ccsc12,"inconclusive [activator, partial curve]",

Compound,Potency,activation
COCCNc1nc2sc3c(c2c(=O)n1Cc1ccco1)CCCCC3,"inconclusive [activator, partial curve, poor fit]",
C/C(=N\Nc1ncc(Cl)cc1Cl)c1ccccn1,,inactive: 1.6%
CN(Cc1ccccc1)c1nc2c(c(=O)[nH]c(=O)n2C)n1CCCSc1ncccn1,"inconclusive [activator, partial curve, poor fit]",
NCCC1CCCC(CCN)N1 (centres undefined),"inconclusive [activator, single point]",
C[C@@H]1CCCCO[C@H](CN(C)Cc2ccccc2)[C@@H](C)CN([C@H](C)CO)C(=O)c2cc(NC(=O)c3ccccc3)ccc2O1,,inactive: -6.95%
CCOc1ccc(C(=O)COC(=O)c2cc([N+](=O)[O-])ccc2N2CCOCC2)cc1,"inconclusive [activator, single point]",
C/C(N)=C(/C#N)C(=O)CSc1nnc(Nc2cccc(C)c2)s1,"inconclusive [activator, full curve, poor fit]",
COc1cc(OC)cc(-c2nnc(SCc3cccnc3)o2)c1,"inconclusive [activator, single point]",
COc1ccc(CC2(CO)CCN(Cc3cccn3-c3ccccn3)CC2)cc1,,inactive: 12.1%
Cc1nc(-c2ccc3c(c2)OCCCO3)cs1,,inactive: 7.88%
COC(=O)c1sccc1NC(=O)Cc1ccc(OC)cc1,"inconclusive [activator, single point]",
COc1cccc(/C=N/Nc2ncnc3scc(-c4ccccc4)c23)c1OC,"inconclusive [activator, partial curve, poor fit]",
CC(C)NCC(O)c1ccc(O)c(O)c1 (centres undefined),,inconclusive: 46.1% [activator] and inconclusive: 77.8% [activator]
O=C1OC(c2ccccc2)=NC12CC2c1ccc(Cl)cc1 (centres undefined),,inactive: 0.984%
C[n+]1cnn2c1SCC1(COC1)C2,"inconclusive [activator, single point]",
Cc1cc(NC(=O)OC2CCCCC2)ccc1[N+](=O)[O-],"inconclusive [activator, partial curve, poor fit]",
CCOC(=O)Cc1csc(NC(=O)Nc2ccc(Cl)cc2)n1,,inactive: -0.863%
CCCOc1ccc(C(=O)Nc2cc(S(=O)(=O)N3CCOCC3)ccc2N2CCOCC2)cc1,,inactive: -1.88%
COc1cccc(N(CC(=O)NCCSCc2ccc(Cl)cc2)S(C)(=O)=O)c1,"inconclusive [activator, full curve, poor fit]",
CC(C)CCNC(=O)CCc1nnc2n(CCCOC(C)C)c(=O)c3ccccc3n12,,inactive: -0.372%
Cc1ccc(S(=O)(=O)N2CCC(C(=O)OCC(=O)N3CCc4ccccc43)CC2)cc1,"inconclusive [activator, single point]",
CCn1nc(NC(=O)c2ccco2)c2cc3cc(C)ccc3nc21,"inconclusive [activator, partial curve, poor fit]",
COc1ccc(C(NC(=O)C2CCN(Cc3ccc(Oc4ccccc4)cc3)CC2)c2ccccc2C)cn1 (centres undefined),,inactive: 2.53%

Compound,Potency,activation
Cc1cc(C)nc(SCc2nnc(SCC(=O)OC3CCCCC3)o2)n1,"inconclusive [activator, single point]",
CCCOc1ccc(N/C=C/C(=O)c2ccc(OC)c(OC)c2)cc1,"inconclusive [activator, full curve, poor fit]",
Cc1ccc(NC(=O)Cn2c(=O)oc3cc(S(=O)(=O)N4CCC(C)CC4)ccc32)cc1C,,inactive: -2.4%
Cc1nnc(SCc2nc(N)nc(Nc3ccccc3)n2)s1,"inconclusive [activator, single point]",
CCOC(=O)c1c(C)[nH]c(C)c1C(=O)CSc1nc2ccccc2c(=O)n1-c1ccc(F)cc1,"inconclusive [activator, single point]",
CCc1nnc(SCc2ccc([N+](=O)[O-])cc2)nc1CC,"inconclusive [activator, single point]",
COc1ccc(NC(C)c2cc(Cl)ccc2O)cc1 (centres undefined),,inactive: -0.782%
COc1ccc(N2CCN(CC(=O)N3CCC(C)CC3)CC2)cc1,"inconclusive [activator, single point]",
CC(=O)c1cnc2nc(SCc3ccccc3C)nn2c1C,"inconclusive [activator, single point]",
Cn1ccc2cc(-c3ccc4ncnc(NCc5cccs5)c4c3)ccc21,,inactive: 11.1%
CCc1ccc2c(c1)c(=O)c(S(=O)(=O)c1ccc(F)cc1)cn2CC(=O)Nc1ccc(C)cc1C,,inactive: 0.57%
Cc1nc(Cl)cc(N/N=C/c2ccc(O)cc2)n1,"inconclusive [activator, partial curve, poor fit]",
COc1ccc(-c2csc(N(C)C(=O)c3cccs3)n2)cc1,,inactive: 10.4%
Cc1ccc(NC(=O)CSc2ncn(-c3ccccc3)n2)cc1C,"inconclusive [activator, single point]",
CN(C)CCCN(C(=O)c1ccc(S(=O)(=O)N(C)C2CCCCC2)cc1)c1nc2ccc(F)cc2s1,"inconclusive [activator, partial curve, poor fit]",
CCNC(=O)CCn1nc(-c2ccc(C)cc2)c2ccccc2c1=O,"inconclusive [activator, partial curve, poor fit]",
O=C(C1CCC1)N1CCc2cc(S(=O)(=O)N3CCN(c4ccccn4)CC3)ccc21,"inconclusive [activator, single point]",
Cc1cccc(Nc2nc(N)nc(CSC(=S)N3CCOCC3)n2)c1,"inconclusive [activator, partial curve, poor fit]",
CCOC(=O)/C(C(N)=NCC(C)C)=C(/O)c1ccccc1,"inconclusive [activator, single point]",
CCC(C)Nc1nc2c(c(=O)[nH]c(=O)n2C)n1CCCc1ccccc1 (centres undefined),"inconclusive [activator, partial curve, poor fit]",
COCC(=O)Nc1sc2c(c1C(=O)OC)CCC(C)C2 (centres undefined),"inconclusive [activator, partial curve, poor fit]",
c1nnnn1C12CC3CC(CC(C3)C1)C2,,inactive: -1.19%
Cc1ccc(S(=O)(=O)N2CCN(CC(=O)N/N=C/C=C/c3ccccc3)CC2)cc1,,inactive: -10.9%

# From PubChem BioAssay AID624172 (National Center for Advancing Translational Sciences (NCATS), 2012)
